Experimental data from the supplement of paper PMC10126150.
Sequences with one replicate were seen in a single cluster, so their values are uncertain.

Test system: ATP
Experiment: switch fluorescence ratio, 500 uM ATP over buffer (Cy3 cluster intensity, sum of 5 cycles each) (fold (ratio)); higher = stronger signal-on switching upon ATP binding; sequences stand for … in TCGTCGGCAGCGTCAGATGTGTATAAGAGACAGTTTTTTTTTTTTTTTTTTTTTTTTT…TC
Details: aptamer strand: ATP DNA aptamer (quencher-CACCTGGGGGAGTATTGCGGAGGAAGG + anchor), 100 nM annealed; ATP concentration: 500 uM; one replicate
Outline: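 After annealing to 100 nM quencher-labelled ATP aptamer, Cy3-labelled switching-strand clusters on a modified Illumina MiSeq flow-cell were imaged in selection buffer. A second image followed after 15 min with 500 uM ATP at 22 °C, and five such buffer/ATP cycles were done, each separated by NaOH stripping and re-annealing. The fluorescence ratio, averaged per switch-domain sequence, is summed target-cycle over summed buffer-cycle Cy3 intensity per cluster, with clusters outside 100-1000 RFU excluded.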
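Also: ATP exposure 15 min at 22 °C before imaging.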

| Sequence | switch fluorescence ratio |
| --- | --- |
| TCAAGCTGCG | 1.01 |
| GGAACGGACC | 1.12 |
| TGAATATCCT | 1.04 |
| CCCAGCGACA | 1.5 |
| AACATTGGCG | 0.968 |
| TTGTCTTATT | 1.04 |
| TGCACTTCGG | 1.01 |
| GGCGAATAGA | 1.04 |
| GGATTTCAT | 1 |
| CTATCAGGGT | 0.974 |
| CGGTACACC | 1.23 |
| GTGGCAGATG | 0.983 |
| TGGCCAACCG | 1.04 |
| AGGATCTTCT | 1.02 |
| GCGTTACTAG | 1.04 |
| GACTTTCGAT | 1.05 |
| ATAGATTGA | 0.972 |
| AACAGTTGCG | 0.965 |
| TTGATGGGCG | 1.04 |
| ACCATCGTCG | 0.99 |
| TATTGTCTGT | 1.03 |
| CGGTCCTTCT | 1.05 |

| Sequence | switch fluorescence ratio |
| --- | --- |
| CCTTAGACCT | 1.27 |
| CCTTGTACG | 1.03 |
| TAGTCGAATC | 0.995 |
| TACGACATTG | 1.03 |
| ATGAGCGGTT | 1.01 |
| ATCCCTTATT | 1.03 |
| ACTGCTTGGC | 1.03 |
| GGGCTACTAT | 1.08 |
| ATTCGTGATT | 1.03 |
| TTCTATTTAG | 0.969 |
| CAATCCTTTG | 0.998 |
| ACACTTTAGC | 1.03 |
| TACGTACGCA | 1.69 |
| GCTTATATAG | 0.979 |
| GGGTCCATTA | 1.01 |
| CATAGAATG | 1.03 |
| AAAGTAACGA | 1.06 |
| GGATGGAGG | 1.04 |
| CAGTTGACCG | 1.05 |
| CCCATCGGGA | 1.01 |
| TGGCCAGCGG | 1.01 |
| TAGGCACAAT | 1.02 |

| Sequence | switch fluorescence ratio |
| --- | --- |
| TCCACATTGG | 1.01 |
| CATCACTCCA | 1.36 |
| CAAATGCGTA | 1.02 |
| AAGCAGTATG | 0.999 |
| TAGAGGGGTA | 1.02 |
| GAAATGCTGG | 0.968 |
| AAAGCCCAGG | 0.994 |
| CGACTGAACT | 1.07 |
| ATAAATAACG | 1.01 |
| CCATCGGGGT | 1.14 |
| GGACGCGCGT | 1.04 |
| GGAAGGATCG | 0.98 |
| TCACGTCTGA | 1.02 |
| TAGTCTGCCA | 1 |
| TAGTGGTAT | 0.974 |
| CTATTGCATA | 1.08 |
| GCCTCAAAAT | 1.06 |
| ATCCCGTGGC | 0.969 |
| TTGATAGTGG | 0.957 |
| CGTCGGACCG | 1.02 |
| GCCCTTCACC | 1.08 |
| GGGCGGTTAA | 1 |

| Sequence | switch fluorescence ratio |
| --- | --- |
| GGTCTGCG | 1.01 |
| TCTGCTAACG | 1.06 |
| AATCCGTCCC | 1.29 |
| CAAGGTGAAG | 0.983 |
| CCGCTAGGTA | 1.04 |
| TGCGTGCGGA | 1.02 |
| AGTTCGCCGC | 0.974 |
| TTTAACGCGA | 1.07 |
| ATCATCCAAA | 1 |
| TCCCTGGCGG | 1.03 |
| ACGTGGGCAG | 0.975 |
| CGCTCCTTTA | 1.02 |
| CTAGTTGTAG | 0.964 |
| TATCCCAGCA | 1.11 |
| GTCGTAAAGT | 0.997 |
| ATGACTAAAA | 1.02 |
| AACCAACGGG | 1.04 |
| GAGTAAATTA | 0.955 |
| TGATTGCCT | 1.04 |
